Measured values as given in publication PMC5864733.

Biological target: T1, CesT (residues 1-156), 6xHis-tagged, wild type (enteropathogenic E. coli (EPEC) O127:H6 E2348/69), P21244
T1 chain: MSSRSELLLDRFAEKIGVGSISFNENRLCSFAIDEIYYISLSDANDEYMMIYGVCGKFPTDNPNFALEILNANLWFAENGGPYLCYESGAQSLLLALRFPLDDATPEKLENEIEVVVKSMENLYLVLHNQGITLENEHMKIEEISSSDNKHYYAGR
Experiment: SEC
Conditions: remark: other sources report otherwise

B1: CesT (residues 1-156), 6xHis-tagged, wild type, P21244 1-156 (natural protein)
chain: T1 chain
  stoichiometry N: 2
